Results published in US20250313638A1 (KISOJI BIOTECHNOLOGY, published 2025).

Tests used:
[1] = molecular target: T1, recombinant human PD-1 protein (human, UniProt Q15116 part only); assay: ELISA: recombinant human PD-1 coated on the plate; KC020 after pH 3.5 for 4 hours
T1 construct: Bought (Cedarlane Cat. No. HPLC-10377-H08H-100); also called human recombinant PD1 protein; PD-1 recombinant protein
Method: (§1) Briefly, recombinant proteins were coated on 96-well plates. Plates were covered and left at 4° C. overnight. The next day, plates were washed once with PBS and blocked with blocking buffer for 1 hour at room temperature. Binding agents were tested at the indicated concentration (357 nM starting concentration, followed by 12 one in four serial dilutions for FIG. 9B lower panel), diluted in the blocking buffer, and incubated for 1 hour at 37° C. After incubation, plates were washed three times with washing buffer. Plates were incubated with anti-human-Fc-HRP (Sigma-Aldrich, Cat. No. AP113P) diluted at 1:5000 for 1 hour at room temperature, then washed three times with PBS-T washing buffer. The signal was developed with SuperSignal™ ELISA Pico Chemiluminescent Substrate (Thermofisher, Cat. No. 37069). The plates were read on a SpectraMax™ i3x Multi-Mode Microplate Reader (Molecular Devices).

[2] = molecular target: T2, recombinant human CD47 protein (human, UniProt Q08722 part only); assay: ELISA: recombinant human CD47 coated on the plate; KC020 not stressed
T2 construct: Bought (Cedarlane Cat. No. 12283-H08H-200); also called human recombinant CD47 protein; CD47 recombinant protein
Method: as §1

[3] = molecular target: T1, recombinant human PD-1 protein; assay: ELISA: recombinant human PD-1 coated on the plate; KC020 after agitation for 3 days
Method: as §1

[4] = molecular target: T2, recombinant human CD47 protein; assay: ELISA: recombinant human CD47 coated on the plate; KC020 after pH 3.5 for 4 hours
Method: as §1

[5] = molecular target: T2, recombinant human CD47 protein; assay: ELISA: recombinant human CD47 coated on the plate; KC020 after 2 weeks at 40 C
Method: as §1

[6] = molecular target: T2, recombinant human CD47 protein; assay: ELISA: recombinant human CD47 coated on the plate; KC020 not stressed; remark: listed apart in the source
Method: as §1

[7] = molecular target: T3, human Dopamine Receptor D2 presented on proteoliposomes (human, UniProt P14416 1-443, limits assumed); assay: ELISA: D2 proteoliposomes coated on the plate; KC020 after five freeze-thaw cycles
T3 construct: also called D2 proteoliposomes; human D2 presenting proteoliposomes
Method: as §1, with “Plates” for “Briefly, recombinant proteins were coated on 96-well plates. Plates”, “Binding agents were tested at the indicated concentration (357 nM starting concentration, followed by 12 one in four serial dilutions for FIG. 9B lower panel), diluted in the blocking buffer, and incubated for 1 hour at 37° C.” left out

[8] = molecular target: T2, recombinant human CD47 protein; assay: ELISA: recombinant human CD47 coated on the plate; KC020 after pH 3.5 for 48 hours
Method: as §1

[9] = molecular target: T3, human Dopamine Receptor D2 presented on …; assay: ELISA: D2 proteoliposomes coated on the plate; KC020 after pH 3.5 for 4 hours
Method: as §1, with “Plates” for “Briefly, recombinant proteins were coated on 96-well plates. Plates”, “Binding agents were tested at the indicated concentration (357 nM starting concentration, followed by 12 one in four serial dilutions for FIG. 9B lower panel), diluted in the blocking buffer, and incubated for 1 hour at 37° C.” left out

[10] = molecular target: T2, recombinant human CD47 protein; assay: ELISA: recombinant human CD47 coated on the plate; KC020 after five freeze-thaw cycles
Method: as §1

[11] = molecular target: T3, human Dopamine Receptor D2 presented on …; assay: ELISA: D2 proteoliposomes coated on the plate; KC020 after pH 3.5 for 48 hours
Method: as §1, with “Plates” for “Briefly, recombinant proteins were coated on 96-well plates. Plates”, “Binding agents were tested at the indicated concentration (357 nM starting concentration, followed by 12 one in four serial dilutions for FIG. 9B lower panel), diluted in the blocking buffer, and incubated for 1 hour at 37° C.” left out

[12] = molecular target: T1, recombinant human PD-1 protein; assay: ELISA: recombinant human PD-1 coated on the plate; KC020 after pH 3.5 for 48 hours
Method: as §1

[13] = molecular target: T1, recombinant human PD-1 protein; assay: ELISA: recombinant human PD-1 coated on the plate; KC020 after 2 weeks at 40 C
Method: as §1

[14] = molecular target: T3, human Dopamine Receptor D2 presented on …; assay: ELISA: D2 proteoliposomes coated on the plate; KC020 not stressed
Method: as §1, with “Plates” for “Briefly, recombinant proteins were coated on 96-well plates. Plates”, “Binding agents were tested at the indicated concentration (357 nM starting concentration, followed by 12 one in four serial dilutions for FIG. 9B lower panel), diluted in the blocking buffer, and incubated for 1 hour at 37° C.” left out

[15] = molecular target: T3, human Dopamine Receptor D2 presented on …; assay: ELISA: D2 proteoliposomes coated on the plate; KC020 after 2 weeks at 40 C
Method: as §1, with “Plates” for “Briefly, recombinant proteins were coated on 96-well plates. Plates”, “Binding agents were tested at the indicated concentration (357 nM starting concentration, followed by 12 one in four serial dilutions for FIG. 9B lower panel), diluted in the blocking buffer, and incubated for 1 hour at 37° C.” left out

[16] = molecular target: T2, recombinant human CD47 protein; assay: ELISA: recombinant human CD47 coated on the plate; KC020 after agitation for 3 days
Method: as §1

[17] = molecular target: T1, recombinant human PD-1 protein; assay: ELISA: recombinant human PD-1 coated on the plate; KC020 after five freeze-thaw cycles
Method: as §1

[18] = molecular target: T1, recombinant human PD-1 protein; assay: ELISA: recombinant human PD-1 coated on the plate; KC020 not stressed
Method: as §1

[19] = molecular target: T1, recombinant human PD-1 protein; assay: as above; remark: listed apart in the source
Method: as §1

[20] = molecular target: T3, human Dopamine Receptor D2 presented on …; assay: ELISA: D2 proteoliposomes coated on the plate; KC020 not stressed; remark: listed apart in the source
Method: as §1, with “Plates” for “Briefly, recombinant proteins were coated on 96-well plates. Plates”, “Binding agents were tested at the indicated concentration (357 nM starting concentration, followed by 12 one in four serial dilutions for FIG. 9B lower panel), diluted in the blocking buffer, and incubated for 1 hour at 37° C.” left out

[21] = molecular target: T3, human Dopamine Receptor D2 presented on …; assay: ELISA: D2 proteoliposomes coated on the plate; KC020 after agitation for 3 days
Method: as §1, with “Plates” for “Briefly, recombinant proteins were coated on 96-well plates. Plates”, “Binding agents were tested at the indicated concentration (357 nM starting concentration, followed by 12 one in four serial dilutions for FIG. 9B lower panel), diluted in the blocking buffer, and incubated for 1 hour at 37° C.” left out

T2 sequence (Q08722 19-139 limits assumed): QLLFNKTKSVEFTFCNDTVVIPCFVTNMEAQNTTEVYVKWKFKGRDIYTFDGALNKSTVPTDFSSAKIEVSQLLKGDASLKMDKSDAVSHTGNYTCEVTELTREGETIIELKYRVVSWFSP
T3 sequence (P14416 whole entry): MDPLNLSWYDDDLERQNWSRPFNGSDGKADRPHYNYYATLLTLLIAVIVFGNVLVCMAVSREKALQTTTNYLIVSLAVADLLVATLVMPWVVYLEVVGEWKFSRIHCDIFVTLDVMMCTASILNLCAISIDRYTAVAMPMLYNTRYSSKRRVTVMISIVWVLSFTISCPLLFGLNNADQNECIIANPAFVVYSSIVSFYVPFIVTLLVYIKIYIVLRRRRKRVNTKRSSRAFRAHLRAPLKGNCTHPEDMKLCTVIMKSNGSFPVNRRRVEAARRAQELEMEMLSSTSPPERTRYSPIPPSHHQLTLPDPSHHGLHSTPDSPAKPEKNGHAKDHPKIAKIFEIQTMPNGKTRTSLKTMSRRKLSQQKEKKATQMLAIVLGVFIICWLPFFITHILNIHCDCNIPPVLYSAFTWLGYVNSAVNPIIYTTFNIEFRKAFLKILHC
T1 sequence (Q15116 25-167 limits assumed): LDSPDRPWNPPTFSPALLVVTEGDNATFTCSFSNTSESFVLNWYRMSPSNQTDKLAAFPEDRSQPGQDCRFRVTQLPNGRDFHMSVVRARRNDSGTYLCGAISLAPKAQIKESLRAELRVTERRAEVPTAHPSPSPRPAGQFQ

B1: KC020 (Fc fusion)
chain: QVQLQESGGGLVQAGGSLRLSCAASEIIFSITAMNWYRQAPGKQRELVAGISSSGKITYQDSVKGRFTISKDNAKNTLYLQMNSLKPEDTAVYYCNTWAGARDAIWGQGTQVTVSS[gap - human IgG1 Fc]APAPAPAPAPKAQVQLQESGGGWVQPGGSLRLSCVASGFTFSRSSMSWHRQAPGKERDLVAIISSSGIITHYSDSVKGRFTISRDNAKDTVYLQMNSLKPEDTAVYVCNAVLDDDSGDYWGQGTQVTVSSGGGGSGGGGSGGGGSQVQLQESGGGLVQPGGSLRLSCAASRFDFSVNDIRWYRQAPGNERELVARITGGGRTDYADSVKGRFTISRDNAKNTVYLQMNNLKPEDTAVYYCWGRGYWGQGTQVTVSS
notes: KC001 VHH, human IgG1 hinge-CH2-CH3, rigid linker, KC009 VHH, flexible linker, KC010 VHH; May comprise a His-tag or not; also called (DR2)
EC50 (read off the curve) [1]: ~0.1 nM | EC50 (read off the curve) [2]: ~0.3 nM | EC50 (read off the curve) [3]: ~0.1 nM | EC50 (read off the curve) [4]: ~0.2 nM | EC50 (read off the curve) [5]: ~0.2 nM | EC50 (read off the curve) [6]: ~0.2 nM | EC50 (read off the curve) [7]: ~0.1 nM | EC50 (read off the curve) [8]: ~0.3 nM | EC50 (read off the curve) [9]: ~0.1 nM | EC50 (read off the curve) [10]: ~0.2 nM | EC50 (read off the curve) [11]: ~0.1 nM | EC50 (read off the curve) [12]: ~0.2 nM | EC50 (read off the curve) [13]: ~0.2 nM | EC50 (read off the curve) [14]: ~0.1 nM | EC50 (read off the curve) [15]: ~0.1 nM | EC50 (read off the curve) [16]: ~0.2 nM | EC50 (read off the curve) [17]: ~0.1 nM | EC50 (read off the curve) [18]: ~0.2 nM | EC50 (read off the curve) [19]: ~0.2 nM | EC50 (read off the curve) [20]: ~0.1 nM | EC50 (read off the curve) [21]: ~0.1 nM
